Measured values reported in the supplement of paper PMC3656093.
± gives the standard deviation of the averaged measurements. The full ranking holds about 1,900 compounds; the median of “CD40L-induced NF-kB luciferase activity, plate-corrected, relative to DMSO (0) and IKK inhibitor VII (-100) controls” is about 0.032, and the lowest 2% start at about -26. The list shows a part of the results.

Test system: BL2-NFkB-Luc
Assay: CD40L-induced NF-kB luciferase activity, plate-corrected, relative to DMSO (0) and IKK inhibitor VII (-100) controls (% normalized activity); higher = more NF-kB reporter activity (less inhibition)
Details: 9.4 µM; stimulus: tCD40L 64 ng/ml; 4.5 h
Procedure: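 BL2 B cells with a stable NF-kB response-element luciferase reporter (BL2-NFkB-Luc), 384-well. Cells were pre-incubated with compound at 9.4 uM for 1 h at 37 C, then stimulated with 64 ng/ml trimerized CD40L for 4.5 h; luciferase was read with Steady-Glo. Signal was normalised per plate in Genedata (median DMSO neutral control = 0, median IKK inhibitor VII at 50 uM = -100) with Assay Median plate-pattern correction; duplicate plates.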

First: COc1ccc(CN(C)CCc2ccccn2)cc1OC
Second: COc1cc2c(cc1OC)C(Cc1ccc(O)cc1)N(C)CC2 (stereo not drawn)
The “CD40L-induced NF-kB luciferase activity” value of the first is lower: -3.21 ± 1.3 for the first, -0.549 ± 0.081 for the second.

`CC(N=C(NC#N)Nc1ccncc1)C(C)(C)C` (stereo not drawn) and `CC(C)(C)C(=O)NC(=S)NNC(=O)c1ccncc1` are within error of each other in “CD40L-induced NF-kB luciferase activity” value: -1.86 ± 0.31 for the first, -14 ± 18 for the second.

First: CC(=O)OCC(=O)[C@@]1(OC(C)=O)[C@@H](C)C[C@H]2[C@@H]3C[C@H](F)C4=CC(=O)C=C[C@]4(C)[C@@]3(F)[C@@H](O)C[C@@]21C
Second: CC(=O)OCC(=O)[C@H]1CC[C@H]2[C@@H]3CCC4=CC(=O)CC[C@]4(C)[C@H]3CC[C@]12C
The “CD40L-induced NF-kB luciferase activity” value of the first is lower: -17.3 ± 0.28 for the first, -9.02 ± 3.7 for the second.

Compared with `O=C(NO)c1ccccc1O`, `Cn1c(=O)c(C(=O)NCCO)c(O)c2ccccc21` is higher in “CD40L-induced NF-kB luciferase activity” value: -8 ± 5.2 for the first, 11.6 ± 3.2 for the second.

`C#C[C@]1(O)CC[C@H]2[C@@H]3CCC4=CC(=O)CC[C@@H]4[C@H]3CC[C@@]21CC` and `COc1ccc2[nH]c(=O)c(CNC3CCCCC3)cc2c1` are within error of each other in “CD40L-induced NF-kB luciferase activity” value: -3.72 ± 4.1 for the first, 2.49 ± 4.4 for the second.

Compared with `COc1cc2nc(-c3ccccc3)nc(N3CCCC3)c2cc1OC`, `CC[n+]1ccc2cc(OC)c(OC)cc2c1Cc1ccc(OC)c(OC)c1` is lower in “CD40L-induced NF-kB luciferase activity” value: 14.1 ± 1.1 for the first, -0.423 ± 1.5 for the second.

`CCOC(=O)Cn1c(C)cc(=O)c2ccccc21` and `CCOC(=O)N1c2ccccc2C=CC1OCC` (stereo not drawn) are within error of each other in “CD40L-induced NF-kB luciferase activity” value: 0.248 ± 3.4 for the first, 1.55 ± 3.5 for the second.

Compared with `COc1ccc(C(=O)/C=C/c2cc(C(=O)O)cc3c2OCOC3)c(O)c1`, `COc1ccccc1C(=O)c1cc2ccc(O)cc2oc1=O` is higher in “CD40L-induced NF-kB luciferase activity” value: -8.03 ± 6.9 for the first, 3.01 ± 2 for the second.

First: CNc1nc(N(C)C)nc(N(C)C)n1
Second: Cc1c2c(nc3c(C)cccc13)OC(C)C2 (stereo not drawn)
The “CD40L-induced NF-kB luciferase activity” value of the first is lower: -0.683 ± 1.1 for the first, 1.45 ± 0.016 for the second.

Going from `O=C(O)CP(=O)(O)O` to `C[C@H]1O[C@H]1P(=O)(O)O`, the “CD40L-induced NF-kB luciferase activity” value falls from 10.9 ± 0.59 to 3.4 ± 3.8.

Going from `CCc1cc2c(=O)c(-c3ccc(F)cc3)c(C)oc2cc1OCC(=O)O` to `COc1cc(/C=C/C(=O)CC(=O)/C=C/c2ccc(O)c(OC)c2)ccc1O`, the “CD40L-induced NF-kB luciferase activity” value rises from 1.94 ± 0.96 to 8.92 ± 1.7.

First: O=C(c1ccc(O)cc1)c1ccc(O)cc1O
Second: CCC(=O)c1ccc(OCc2ccc(C(=O)OC)cc2)cc1
The “CD40L-induced NF-kB luciferase activity” value of the first is lower: 4.98 ± 0.29 for the first, 47.3 ± 2.2 for the second.

`COc1ccccc1OCC(O)COC(N)=O` (stereo not drawn) and `COc1cccc(OCC(O)CO)c1` (stereo not drawn) are within error of each other in “CD40L-induced NF-kB luciferase activity” value: -3.41 ± 4.7 for the first, 4.15 ± 11 for the second.

`CC(=O)CCc1c(C)c2cccc(C)c2[nH]c1=O` and `COc1ccc2cc(C(=O)OC(C)C)sc(=O)c2c1OC` are within error of each other in “CD40L-induced NF-kB luciferase activity” value: 1.37 ± 8.8 for the first, 12.3 ± 3.2 for the second.

First: COC(=O)c1ccccc1NC(=O)c1ccc(COc2ccc3c(c2)CCC3)cc1
Second: CCOC(=O)c1ccc(N2C(=O)C(CC(N)=O)N(CCc3ccc(OC)c(OC)c3)C2=S)cc1 (stereo not drawn)
The “CD40L-induced NF-kB luciferase activity” value of the first is higher: 13.3 ± 8.1 for the first, 2.87 ± 1.8 for the second.

Compared with `CN1CCCC(OC(=O)c2ccc3c(c2)OCCO3)C1` (stereo not drawn), `O=C(/C=C/c1ccc2c(c1)OCO2)c1ccccn1` is higher in “CD40L-induced NF-kB luciferase activity” value: 0.542 ± 3.1 for the first, 44.5 ± 13 for the second.

First: Fc1ccc(-c2cc(-c3ccccc3)nc(-n3cccn3)n2)cc1
Second: O=C1NCC2=C1C(c1ccccc1)Nc1ccccc1N2 (stereo not drawn)
The “CD40L-induced NF-kB luciferase activity” value of the first is lower: -4.51 ± 1.4 for the first, 17.82 ± 0.028 for the second.

`CC(C)Cc1nc(NCCN2CCOCC2)c(C#N)c2c1COC(C)(C)C2` and `COc1ccc(Cc2noc(CN(C)CC3(N4CCOCC4)CCCCC3)n2)cc1OC` are within error of each other in “CD40L-induced NF-kB luciferase activity” value: -2.89 ± 0.75 for the first, -2.82 ± 6.4 for the second.

Going from `c1ccc(CNc2ncnc3nc[nH]c23)cc1` to `NCc1ccccc1COc1ccccc1`, the “CD40L-induced NF-kB luciferase activity” value falls from 3.9 ± 1.4 to -4.87 ± 3.4.

`Cc1ccc2c(c1)C(O)(C1COC(C)(C)CC1=O)C(=O)N2C` (stereo not drawn) and `Cn1cc(C2N3CC4(C)CN2CC(C)(C3)C4=O)c2ccccc21` (stereo not drawn) are within error of each other in “CD40L-induced NF-kB luciferase activity” value: -0.228 ± 1.6 for the first, -1.29 ± 1.8 for the second.

`Cc1ccccc1-c1nn(-c2ccc(F)cc2F)cc1CNCCN(C)C` and `CN(C)CCCN1c2ccccc2CCc2ccccc21` are within error of each other in “CD40L-induced NF-kB luciferase activity” value: -0.375 ± 1.3 for the first, 0.214 ± 1.2 for the second.

Compared with `COc1ccc(C2C3=C(OC(C)=O)c4ccccc4C3=Nc3c2c(=O)n(C)c(=O)n3C)cc1` (stereo not drawn), `Cc1cnc(NC(=O)C2C(=O)c3ccccc3S(=O)(=O)N2C)s1` (stereo not drawn) is lower in “CD40L-induced NF-kB luciferase activity” value: 6.21 ± 0.2 for the first, -2.78 ± 4.5 for the second.

`CC(=O)NC(Cc1c[nH]c2ccccc12)C(=O)NN=Cc1ccccc1` (stereo not drawn) and `CN1C(=O)C(O)(CC(=O)/C=C/C=C/c2ccccc2)c2ccccc21` (stereo not drawn) are within error of each other in “CD40L-induced NF-kB luciferase activity” value: 3.28 ± 0.72 for the first, 1.38 ± 2.4 for the second.

`COC1CCN(Cc2cn(Cc3ccccc3)nc2-c2cc3ccccc3o2)CC1` and `CC1(C)C(C=C(Cl)Cl)C1C(=O)N1CCN(Cc2ccccc2)CC1` (stereo not drawn) are within error of each other in “CD40L-induced NF-kB luciferase activity” value: 1.03 ± 0.17 for the first, -1.62 ± 5.9 for the second.

`Cc1cccc(-c2ncc(CN3CCN(CC(C)C)C(CCO)C3)cn2)c1` (stereo not drawn) and `CC(C)CN1CCN(Cc2cccn2-c2ccccn2)CC1CCO` (stereo not drawn) are within error of each other in “CD40L-induced NF-kB luciferase activity” value: -2.36 ± 4.5 for the first, -10.8 ± 8.3 for the second.

First: COCCCNc1nc2c([nH]1)c(=O)[nH]c(=O)n2C
Second: COc1ccc2[nH]cc(CCNC(=O)C3CCCNC3=O)c2c1 (stereo not drawn)
The “CD40L-induced NF-kB luciferase activity” value of the first is higher: 3.3 ± 3 for the first, -11.5 ± 4.2 for the second.

`O=C(O)/C=C/c1cnc[nH]1` and `NC(CO)C(=O)NNCc1ccc(O)c(O)c1O` (stereo not drawn) are within error of each other in “CD40L-induced NF-kB luciferase activity” value: -1.07 ± 0.34 for the first, 0.201 ± 2.6 for the second.

`CCN(CC)C(=O)c1sc(NC(=O)c2c(OC)cccc2OC)c(C#N)c1C` and `COc1ccc2nc([S+]([O-])Cc3ncc(C)c(OC)c3C)[nH]c2c1` (stereo not drawn) are within error of each other in “CD40L-induced NF-kB luciferase activity” value: 4.13 ± 5.4 for the first, 5.73 ± 8.1 for the second.

`CC1COc2c(N3CCN(C)CC3)c(F)cc3c(=O)c(C(=O)O)cn1c23` (stereo not drawn) and `OCCN(CCO)c1ccc2ccccc2c1` are within error of each other in “CD40L-induced NF-kB luciferase activity” value: -2.61 ± 3.1 for the first, 2.64 ± 4.2 for the second.
